Source: PubChem BioAssay AID504332 (National Center for Advancing Translational Sciences (NCATS), 2011)
Screen size: about 350,000 compounds; about 31,000 (8.9%) were called active. The inconclusive results got no clear call from the source; some entries with a clear call stand among them for comparison. Calls come from the whole dose curve; as a rule, active = well fitted inhibition curve with a large enough effect; inconclusive = small, poorly fitted or top-dose-only effect; inactive = no such curve, though single readings can be large or run the other way. Where the call is inconclusive, the potency comes from a doubtful curve fit.

Each molecule was assayed against Histone-lysine N-methyltransferase EHMT2 (Homo sapiens) (UniProt Q96KQ7) (assay: qHTS Assay for Inhibitors of Histone Lysine Methyltransferase G9a). Conditions: G9a H3K9 monomethylation, AlphaScreen, 2 h; activity, negative = inhibition: at 59 µM (top of the series) unless noted.
Outline: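 Chemiluminescent proximity detection of H3K9 monomethylation, read after 10 min bead incubation in the dark. Reaction: 20 nM G9a, 500 nM biotin-H3K9 peptide, 20 uM SAM cofactor, 2 h, room temperature, following 15 min enzyme-compound preincubation.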
% is set by controls: 0 for no effect and ±100 for the full control effect; potency is the fitted concentration of half-maximal effect; tags give direction and shape of the fitted curve.
Note: nearly all actives have a fitted effect of over 75% in size.

Sequence of UniProt Q96KQ7 (Q96KQ7 whole entry, looked up): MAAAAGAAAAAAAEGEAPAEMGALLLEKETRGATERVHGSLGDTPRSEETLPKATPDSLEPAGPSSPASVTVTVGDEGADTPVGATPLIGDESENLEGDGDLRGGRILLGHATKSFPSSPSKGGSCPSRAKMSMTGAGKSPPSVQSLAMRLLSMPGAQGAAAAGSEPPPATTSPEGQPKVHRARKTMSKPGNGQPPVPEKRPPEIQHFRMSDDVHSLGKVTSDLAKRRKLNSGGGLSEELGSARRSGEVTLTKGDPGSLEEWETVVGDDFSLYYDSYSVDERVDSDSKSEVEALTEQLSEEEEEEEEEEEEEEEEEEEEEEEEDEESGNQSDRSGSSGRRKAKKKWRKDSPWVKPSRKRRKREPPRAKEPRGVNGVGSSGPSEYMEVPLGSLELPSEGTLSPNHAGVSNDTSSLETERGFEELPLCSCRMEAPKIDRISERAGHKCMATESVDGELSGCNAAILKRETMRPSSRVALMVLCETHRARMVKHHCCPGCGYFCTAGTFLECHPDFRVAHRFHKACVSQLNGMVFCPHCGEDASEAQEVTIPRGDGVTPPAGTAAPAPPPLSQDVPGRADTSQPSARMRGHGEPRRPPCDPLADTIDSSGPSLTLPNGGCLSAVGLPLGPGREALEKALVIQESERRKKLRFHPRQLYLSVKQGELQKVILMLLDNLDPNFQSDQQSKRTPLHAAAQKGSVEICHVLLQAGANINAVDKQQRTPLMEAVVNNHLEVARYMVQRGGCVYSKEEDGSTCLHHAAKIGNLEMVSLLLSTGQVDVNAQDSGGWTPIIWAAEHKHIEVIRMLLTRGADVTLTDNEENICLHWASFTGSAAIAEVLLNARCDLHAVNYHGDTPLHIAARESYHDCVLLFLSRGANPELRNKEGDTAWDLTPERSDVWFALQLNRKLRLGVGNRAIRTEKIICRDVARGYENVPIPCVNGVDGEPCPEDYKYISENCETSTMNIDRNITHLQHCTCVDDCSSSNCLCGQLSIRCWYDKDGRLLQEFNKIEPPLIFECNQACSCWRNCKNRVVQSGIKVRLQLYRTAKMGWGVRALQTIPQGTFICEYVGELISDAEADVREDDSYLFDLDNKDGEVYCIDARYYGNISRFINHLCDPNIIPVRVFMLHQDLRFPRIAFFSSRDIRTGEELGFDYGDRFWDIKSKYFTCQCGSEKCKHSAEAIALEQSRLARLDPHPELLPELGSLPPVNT

Row | SMILES | Potency | activity, negative = inhibition
1 | CCOC(=O)c1ccc2c(c1)N(CC(=O)N1CCCCC1)C(=O)C(C)(C)O2 | inconclusive: 25.1 µM [inhibitor, single point] | –
2 | CCOc1cc(C(=O)NCc2ccc3c(c2)CCN3C(=O)c2ccc(F)cc2)cc(OCC)c1OCC | – | inactive: -6.25%
3 | CC(C)c1nnc(NC(=O)c2ccc(S(=O)(=O)N3CCOCC3)cc2)s1 | inconclusive: 22.4 µM [inhibitor, full curve] | –
4 | CC(C)(C)/C(COc1ccccc1[N+](=O)[O-])=N/O | – | inactive: -15.5% [at 102 µM]
5 | COc1ccc(NC(=O)CN(C)C(=O)c2cc(-c3ccc(C)o3)nc3ccccc23)cc1 | active: 4.47 µM | –
6 | CN1CCCN(S(=O)(=O)c2cccc(Cl)c2Cl)CC1 | active: 44.7 µM | –
7 | COc1cc(C2N(c3ccccc3)CCN2c2ccccc2)cc(OC)c1OC | inconclusive: 89.1 µM [inhibitor, single point] | –
8 | N#C/C(=C\c1ccc(F)c(F)c1)C(=O)NC1CCCCC1 | – | inactive: 7.47% [at 102 µM]
9 | c1csc(Cc2nn3c(-c4n[nH]c5c4CCC5)nnc3s2)c1 | inconclusive: 2.51 µM [inhibitor, partial curve, poor fit] | –
10 | COc1cc2[nH]c(=O)n(CCCCCC(=O)N3CCN(c4ccccn4)CC3)c(=O)c2cc1OC | inconclusive: 39.8 µM [inhibitor, single point] | –
11 | Cc1c(C(=O)N2CCCCC2C)sc2nc3n(c(=O)c12)CCC3 (configuration not stated) | – | inactive: 11.8% [at 102 µM]
12 | Cc1c2cnn(CC(=O)NCC(C)c3ccccc3)c(=O)c2c(C)n1Cc1cccc(Cl)c1 (configuration not stated) | – | inactive: 11.8%
13 | CCOc1cc(/C=C2\SC(=S)N(C(C(=O)O)c3ccccc3)C2=O)ccc1O (configuration not stated) | active: 44.7 µM | –
14 | CCc1ccc(C(=O)c2cnc3ccc(F)cc3c2S(=O)(=O)c2ccccc2)cc1 | inconclusive: 1.41 µM [inhibitor, full curve] | –
15 | CC1=C(C(=O)N2CCOCC2)C(c2ccc(O)cc2)NC(=S)N1 (configuration not stated) | inconclusive: 89.1 µM [inhibitor, single point] | –
16 | Cc1ccc(-n2c(N)c(C(=O)NCc3cccnc3)sc2=S)cc1 | active: 10 µM | –
17 | CC(=O)c1ccccc1OCCCN1CCCCC1 | active: 11.2 µM | –
18 | CN(C)CCCNc1oc(-c2ccccc2Cl)nc1S(=O)(=O)c1ccc(F)cc1 | inconclusive: 31.6 µM [inhibitor, single point] | –
19 | CCC(C(=O)OCC(=O)N1CCN(S(=O)(=O)c2ccc(C)cc2C)CC1)c1ccccc1 (configuration not stated) | – | inactive: -16.3%
20 | OCCN1CC(O)C(O)C(O)C1CO (configuration not stated) | – | inactive: 1.7% [at 2.33 µM]
21 | CN(C)/C(=N\S(=O)(=O)c1ccc(Cl)cc1)c1ccc(F)cc1 | – | inactive: 18.3% [at 102 µM]
22 | NS(=O)(=O)c1ccc(NC(=O)c2ccc(-c3ccccc3)cc2)cc1 | inconclusive: 44.7 µM [inhibitor, partial curve, poor fit] | –
23 | O=C(OCCCCN1C(=O)c2ccccc2C1=O)c1n[nH]c2ccccc12 | active: 50.1 µM | –
24 | CCCCOc1ccc(N2C(N)=NC(N)=NC23CCCCC3)cc1 | inconclusive: 89.1 µM [inhibitor, single point] | –

Row | SMILES | Potency | activity, negative = inhibition
25 | Cc1ccc(CNC(=O)c2ccc3c(c2)c(C)c(C)n3Cc2ccccc2)o1 | inconclusive: 22.4 µM [inhibitor, partial curve, poor fit] | –
26 | c1ccc(CN2CCN(c3nc4ccccc4n4cnnc34)CC2)cc1 | active: 50.1 µM | –
27 | COc1ccc(Cc2nnc(SCC(=O)NC3CCCCC3)n2C)cc1 | inconclusive: 2.51 µM [inhibitor, partial curve, poor fit] | –
28 | COc1cccc(CC2(CO)CCCN(Cc3[nH]c4ccc(C)cc4c3C)C2)c1 (configuration not stated) | active: 44.7 µM | –
29 | COc1cc(/C=N/NC2=NCCCCC2)ccc1O | active: 56.2 µM | –
30 | Cc1oc2ccc(O)c(CN3CCCC3)c2c1C(=O)Nc1ccccc1 | – | inactive: -3.78%
31 | CN(CC(=O)NCc1ccco1)CC(=O)Nc1cc(S(C)(=O)=O)ccc1Cl | – | inactive: -4.88% [at 0.501 µM]
32 | Cc1cc(C)cc(N2CCN(C(=O)N3CCOCC3)CC2)c1 | inconclusive: 44.7 µM [inhibitor, partial curve, poor fit] | –
33 | COc1cccc2c1C(=O)c1c(O)c3c(c(O)c1C2=O)C[C@@](O)(C(=O)CO)C[C@@H]3OC1C[C@@H](N)[C@H](O)[C@H](C)O1 (some centres not stated) | active: 14.1 µM | –
34 | CC1(C(=O)O)CCC(C(=O)N2CCCCC2)C1(C)C (configuration not stated) | – | inactive: 25.6% [at 102 µM]
35 | O=C(NC1CCN(S(=O)(=O)c2ccc(Cl)c(F)c2)CC1)c1cccnc1 | – | inactive: -4.63% [at 102 µM]
36 | Cc1csc(NC(=O)C2CCCC2)n1 | active: 39.8 µM | –
37 | CS(=O)(=O)Nc1ccc(-c2ccc(/C=C3\SC(N)=NC3=O)o2)cc1 | inconclusive: 89.1 µM [inhibitor, single point] | –
38 | O=C(Nc1ccccc1)N1CC[C@@]2(CCCN(C(=O)c3cc(C(F)(F)F)cc(C(F)(F)F)c3)C2)C1 | – | inactive: 12.3% [at 12.7 µM]
39 | CCc1cccc2c(-c3ccccc3)nc(SCC(=O)Nc3ccccc3OC)nc12 | – | inactive: 19.4%
40 | Cc1ccc(CNC(=O)CN2C(=O)CCn3nc(-c4ccccc4)cc32)cc1 | – | inactive: -5.93%
41 | COc1ccccc1NC(=O)C(C)Sc1nnc2ccc3ccccc3n12 (configuration not stated) | inconclusive: 8.91 µM [inhibitor, partial curve, poor fit] | –
42 | COC(=O)/C=C1/S/C(=N/NC(=O)c2ccccc2)NC1=O | inconclusive: 5.01 µM [inhibitor, full curve, poor fit] | –
43 | O=C(CCCN1C(=O)c2ccccc2C1=O)Nc1sc2c(c1C(=O)NCc1ccco1)CCC2 | – | inconclusive: -71.7% [inhibitor]
44 | COCCCNC(=O)Cc1c(C)c2cc3c(cc2oc1=O)OC(C)(C)CC3 | – | inactive: 23.4% [at 102 µM]
45 | O=c1c(Cl)c(NCc2ccc(F)cc2)cnn1C12CC3CC(CC(C3)C1)C2 | inconclusive: 39.8 µM [inhibitor, single point] | –
46 | OCCN(CCO)c1ccc(C(c2ccccc2Cl)c2ccc(N(CCO)CCO)cc2Cl)c(Cl)c1 | active: 44.7 µM | –
47 | Cc1c(Br)c([N+](=O)[O-])nn1CC(=O)N(C)Cc1ccccc1 | inconclusive: 89.1 µM [inhibitor, partial curve, poor fit] | –
